Measurements taken from PubChem BioAssay AID1347165 (National Center for Advancing Translational Sciences (NCATS), 2019).
Where “and” joins values, the source holds several entries; their conditions need not be identical. Equal entries are not always repeated. The campaign covered roughly 220,000 compounds. About 5,700 (2.6%) were called active. This list was built around the results that the source calls inconclusive (neither active nor inactive); the mix of calls is not that of the screen. The call rests on the fitted dose curve; in most records, active means well fitted inhibition curve with a large enough effect; inconclusive means small, poorly fitted or top-dose-only effect; inactive means no such curve, though single readings can be large or run the other way. A potency beside an inconclusive call is a rough fit, not a confirmed value.

target: Lysine-specific demethylase 5B (Homo sapiens) (UniProt Q9UGL1); assay: Primary screen for KDM5B Histone Demethylases FDH-coupled qHTS; conditions: FDH-coupled NADH fluorescence (FDH is formaldehyde dehydrogenase); activity change, negative = inhibition: at 57.7 µM (top of the series) unless noted; further: nearly all actives have a fitted effect of over 70% in size; on activity change, negative = inhibition: 0% is about no effect
Chain of UniProt Q9UGL1 (Q9UGL1 whole entry, looked up, the tested form may be a part): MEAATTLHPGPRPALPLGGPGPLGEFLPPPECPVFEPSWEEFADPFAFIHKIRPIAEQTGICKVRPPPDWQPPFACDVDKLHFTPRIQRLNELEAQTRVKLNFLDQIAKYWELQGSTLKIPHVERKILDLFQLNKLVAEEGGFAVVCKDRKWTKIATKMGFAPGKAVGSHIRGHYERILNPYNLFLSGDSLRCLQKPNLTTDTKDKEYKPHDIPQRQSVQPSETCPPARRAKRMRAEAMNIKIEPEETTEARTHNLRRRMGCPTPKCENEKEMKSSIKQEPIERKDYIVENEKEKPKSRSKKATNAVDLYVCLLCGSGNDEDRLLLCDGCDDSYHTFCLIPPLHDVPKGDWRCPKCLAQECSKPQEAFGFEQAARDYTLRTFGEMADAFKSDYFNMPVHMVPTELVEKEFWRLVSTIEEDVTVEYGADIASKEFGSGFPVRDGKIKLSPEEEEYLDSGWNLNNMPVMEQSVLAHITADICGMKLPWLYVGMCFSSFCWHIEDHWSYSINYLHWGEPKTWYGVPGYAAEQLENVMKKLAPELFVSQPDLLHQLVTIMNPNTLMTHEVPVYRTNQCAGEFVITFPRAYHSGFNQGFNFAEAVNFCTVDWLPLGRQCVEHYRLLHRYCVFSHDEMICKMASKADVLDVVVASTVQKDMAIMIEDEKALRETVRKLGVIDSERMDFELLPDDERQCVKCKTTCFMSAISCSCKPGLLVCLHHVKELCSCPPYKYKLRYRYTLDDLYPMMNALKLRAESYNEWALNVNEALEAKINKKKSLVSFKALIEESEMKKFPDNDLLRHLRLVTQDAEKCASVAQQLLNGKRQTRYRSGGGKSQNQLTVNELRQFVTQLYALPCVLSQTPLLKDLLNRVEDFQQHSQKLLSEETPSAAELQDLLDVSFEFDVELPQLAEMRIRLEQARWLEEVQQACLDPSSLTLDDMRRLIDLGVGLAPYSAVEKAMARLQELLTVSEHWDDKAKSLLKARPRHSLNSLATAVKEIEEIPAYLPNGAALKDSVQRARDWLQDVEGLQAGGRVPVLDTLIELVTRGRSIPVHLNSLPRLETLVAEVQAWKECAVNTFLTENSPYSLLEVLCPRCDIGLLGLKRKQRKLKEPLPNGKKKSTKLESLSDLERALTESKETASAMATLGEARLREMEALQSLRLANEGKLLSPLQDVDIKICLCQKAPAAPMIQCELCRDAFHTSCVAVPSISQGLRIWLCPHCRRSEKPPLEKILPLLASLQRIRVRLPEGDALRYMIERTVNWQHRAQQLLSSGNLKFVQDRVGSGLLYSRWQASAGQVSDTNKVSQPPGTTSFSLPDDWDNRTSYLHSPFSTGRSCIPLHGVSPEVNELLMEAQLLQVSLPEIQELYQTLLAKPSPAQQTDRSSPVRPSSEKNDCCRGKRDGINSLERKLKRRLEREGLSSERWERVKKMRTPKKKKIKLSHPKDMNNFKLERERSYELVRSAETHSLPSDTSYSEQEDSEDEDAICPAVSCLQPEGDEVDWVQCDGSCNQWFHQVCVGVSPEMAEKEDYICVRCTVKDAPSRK
How it was run: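 Inhibition is measured as reduced NADH fluorescence generation from FDH coupling to formaldehyde release. Truncated KDM5BΔAP at 200 nM final acts on H3K4me3 peptide (12.5 µM in substrate mix) in pH 7.5 HEPES buffer with Tween-20, 30 min, room temperature.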
Potency means the concentration at half of the fitted maximal effect; tags describe the fitted curve by direction and shape.

Row | Structure (SMILES) | Potency | activity change, negative = inhibition
1 | CCC1(CC)CN(C(=O)C2CCC(=O)N(Cc3ccccn3)C2)CCO1 (stereo not given) | inconclusive: 22.4 µM [inhibitor, single point] | –
2 | Cc1noc2c(NCCN(C)C)cc(-c3cccc(C(F)(F)F)c3)nc12 | – | inactive: -4.28% [at 86.2 µM]
3 | COc1ccc(Cn2c(=O)c3ccnn3c3ccc(C(=O)NCc4cccnc4)cc32)cc1 | inconclusive: 31.6 µM [inhibitor, partial curve, poor fit] | –
4 | O=C1N(C2CCN(C3CCC3)CC2)C(c2ccncc2)C12CCCCC2 (stereo not given) | – | inactive: 4.32%
5 | O=C(c1csnn1)N1CCCC(CCc2c(F)cccc2F)C1 (stereo not given) | – | inactive: 16%
6 | O=C(COC(=O)c1cc(NS(=O)(=O)c2cccs2)ccc1O)Nc1ccccc1 | inconclusive: 31.6 µM [inhibitor, single point] | –
7 | CC(=O)Nc1ccc(NC(=O)C(c2ccccc2)N2Cc3ccccc3C2=O)cc1 (stereo not given) | – | inconclusive: -30.1% [inhibitor]
8 | CC(=O)c1cccc(NC(=O)c2cccc[n+]2[O-])c1 | – | inactive: -10.6%
9 | Cc1ccc(CN2CC[C@@H]3CN(S(C)(=O)=O)[C@@H]3C2)c(C)c1 | – | inactive: -20.9%
10 | O=C(Nc1ccccc1)c1cc2cc(Br)ccc2oc1=O | – | inactive: 6.11%
11 | Cc1nc2c(cnn2C(C)C)cc1C(=O)N(C)Cc1ccc(F)cc1 | – | inactive: 5.79%
12 | O=C(O)c1cccc(NCc2ccc(Cl)cc2)c1 | inconclusive: 39.8 µM [inhibitor, single point] | –
13 | Cc1cc(=O)oc2cc(NC(=O)N(C)Cc3ccc(Br)cc3)ccc12 | inconclusive: 14.1 µM [inhibitor, partial curve, poor fit] | –
14 | O=C(c1cc2cc(Br)cc(Br)c2oc1=O)N1CCc2ccccc2C1 | – | inactive: 7.82%
15 | Cc1ccc(C(=O)N2CCCC3(COc4ccccc4C(=O)N3)C2)cc1 (stereo not given) | inconclusive: 31.6 µM [inhibitor, single point] | –
16 | COc1ccc(C(=O)Nc2c(O)ccc3ccccc23)cc1 | inconclusive: 28.2 µM [inhibitor, partial curve, poor fit] | –
17 | CC(=O)c1c(C)[nH]c(-c2csc(NC(C)C)n2)c1C | inconclusive: 25.1 µM [inhibitor, single point] | –
18 | CCOc1ccc(-c2nc(CSc3nc4c(=O)[nH]cnc4n3C)c(C)o2)cc1OC | – | inactive: 2.41%
19 | COc1ccc(-c2nnc([C@H]3CCN(Cc4ccc(C(=O)O)cc4)C3)o2)cc1 | inconclusive: 39.8 µM [inhibitor, single point] | –
20 | COc1ccc(OC)c(CNc2ncnc3c2nc2n3CCCC2)c1 | inconclusive: 17.8 µM [inhibitor, partial curve, poor fit] | –
21 | CCc1c(C)nc(SCc2nc(-c3ccccc3C)no2)[nH]c1=O | inconclusive: 15.8 µM [inhibitor, partial curve, poor fit] | –
22 | Cc1ccc2c(c1)C(C[C@H]1CN(C(=O)C3CCCC3)CC[C@H]1CC(=O)O)=NCC2 | inconclusive: 28.2 µM [inhibitor, single point] | –

Row | Structure (SMILES) | Potency | activity change, negative = inhibition
23 | Cc1ccc(NC(=O)c2c(C)oc3ccc(O)c(CN(C)Cc4ccccc4)c23)c(C)c1 | inconclusive: 39.8 µM [inhibitor, single point] | –
24 | Cc1cccc(-c2cccc3c4c([nH]c23)[C@@H]2C[C@H](N(C)C(=O)c3ccccc3C)[C@H]([C@H](C)O)C(=O)N2CC4)c1 | – | inactive: 20.7%
25 | CCc1cccc(OCC(=O)c2ccc3c(c2)N(CCCC(=O)NCC2CC2)C(=O)CO3)c1 | inconclusive: 31.6 µM [inhibitor, partial curve, poor fit] | –
26 | COc1ccc(/C=C\C(=O)Nc2cccc3cccnc23)cc1OC | – | inactive: 0.423%
27 | O=C1COc2ccc(Nc3ccc(Cl)cc3)nc2CN1Cc1nc2ccccc2s1 | active: 35.5 µM | –
28 | CC(C)c1nc2c(c(-c3ccc(O)cc3)n1)CN(Cc1ccc(N(C)C)cc1)CC2 | inconclusive: 25.1 µM [inhibitor, single point] | –
29 | COc1ccccc1COCC(O)Cn1nc(-c2cccs2)c2ccccc2c1=O (stereo not given) | inconclusive: 25.1 µM [inhibitor, single point] | –
30 | Cc1cc(C)c(CNC(=O)c2nc(-c3cccc(C(F)(F)F)c3)cc3[nH]ccc23)c(=O)[nH]1 | inconclusive: 35.5 µM [inhibitor, partial curve, poor fit] | –
31 | O=C(NC1CC1)c1ccc(CN(C2CC2)S(=O)(=O)c2ccc3c(c2)CCCC3)cc1 | – | inactive: 22.9%
32 | CCCOc1ccc(C(=O)Nc2ccc(-c3cc4ccccc4oc3=O)c(C)c2)cc1 | inconclusive: 28.2 µM [inhibitor, partial curve, poor fit] | –
33 | CCc1ccc(CNC(=O)c2sc3nc[nH]c(=O)c3c2C)cc1 | inconclusive: 31.6 µM [inhibitor, partial curve, poor fit] | –
34 | COC(=O)Cc1c(C)c2ccc(OC(C)C)cc2oc1=O | inconclusive: 25.1 µM [inhibitor, partial curve, poor fit] | –
35 | CCCNc1ncnc2c1c(-c1ccccc1)cn2-c1ccc(OCC)cc1 | inconclusive: 28.2 µM [inhibitor, partial curve, poor fit] and inconclusive: 39.8 µM [inhibitor, partial curve, poor fit] | –
36 | CC1=C([N+](=O)[O-])C(c2ccc(O)c(O)c2)NC(=O)N1 (stereo not given) | inconclusive: 35.5 µM [inhibitor, partial curve, poor fit] | –
37 | COc1ccc(NC(=O)CCn2c(-c3ccc(F)cc3)cc(C(C)=O)c2C)c(OC)c1 | inconclusive: 28.2 µM [inhibitor, partial curve, poor fit] | –
38 | CN1c2cc(C(=O)NCc3cccc(Cl)c3)ccc2C(=O)N2CCCCCC21 (stereo not given) | inconclusive: 15.8 µM [inhibitor, partial curve, poor fit] | –
39 | O=S(=O)([N-]c1nc2ccccc2nc1-n1cc[n+](Cc2ccccc2)c1)c1ccccc1 | inconclusive: 20 µM [inhibitor, partial curve, poor fit] | –
40 | O=C(NC1CC1)c1ccc(Cn2c(SCc3ccc(F)cc3)nc3cccnc32)cc1 | inconclusive: 25.1 µM [inhibitor, partial curve, poor fit] | –
41 | Cc1noc(C)c1CN1CCNc2cnc(OCc3cccnc3)cc2C1 | inconclusive: 35.5 µM [inhibitor, single point] | –
42 | COc1ccc(-c2cc(C(F)(F)F)nc(SCCC(=O)Nc3cccc(OC)c3)n2)cc1 | inconclusive: 31.6 µM [inhibitor, partial curve, poor fit] | –
43 | CCOc1ccc2c(c1)C(NC(C)=O)C(=O)N2CCOc1ccccc1 (stereo not given) | inconclusive: 39.8 µM [inhibitor, single point] | –
44 | O=C(Cn1ccn2nc3c(c2c1=O)CCCC3)NC1CCCC1 | inconclusive: 39.8 µM [inhibitor, partial curve, poor fit] | –

Row | Structure (SMILES) | Potency | activity change, negative = inhibition
45 | Cc1cccc(N2CCN(C(=O)c3cccn3-c3nnc(N4CCCCC4)s3)CC2)c1C | inconclusive: 15.8 µM [inhibitor, partial curve, poor fit] | –
46 | COc1ccc2cc(CNC(=O)c3cnc4ccccc4n3)ccc2c1 | inconclusive: 39.8 µM [inhibitor, single point] | –
47 | COCc1ccc(C(=O)Nc2ccc(NC(C)=O)cc2C(F)(F)F)cc1 | – | inactive: -13%
48 | C=CCNC(=O)c1cnn2ncccc12 | active: 31.6 µM | –
49 | CC(C)(C)CC(=O)N1Cc2[nH]cnc2C[C@H]1C(=O)NCc1ccccc1 | inconclusive: 35.5 µM [inhibitor, single point] | –
50 | O=C(Nc1ccccc1Oc1cccnc1)C1CCCN(C/C=C/c2ccc(F)cc2)C1 (stereo not given) | – | inactive: 15%
51 | COc1ccc(CCNC(=O)CCc2cn(Cc3ccc(F)cc3)c3ccccc23)cc1OC | inconclusive: 2.51 µM [inhibitor, partial curve, poor fit] | –
52 | CCN1CCN(C(C)CNC(=O)NCc2nc(C)cs2)CC1 (stereo not given) | – | inactive: 4.11%
53 | Cc1nc(C2CC2)ncc1C(=O)N1CCN(C)C2(CCNC(=O)CC2)C1 (stereo not given) | – | inactive: -8.29%
54 | COc1ccccc1-c1nc2nccc(-c3ccc(Br)s3)n2n1 | inconclusive: 35.5 µM [inhibitor, partial curve, poor fit] | –
55 | CCc1noc(-c2cn(C3CCN(C(=O)c4cccc(C)c4)CC3)nn2)n1 | – | inactive: -13.7%
56 | Cc1cc(C)n2cc(CSc3ccc(Cl)cc3)nc2n1 | inconclusive: 39.8 µM [inhibitor, single point] | –
57 | Cc1cc2nc3n(c(=O)c2n1CC(=O)N1CCCc2ccccc21)CCCCC3 | – | inactive: 23%
58 | C=CCO[C@@H]1CCN2C(=O)c3cc(-c4ccccc4)ccc3NC(=O)[C@H]12 | – | inactive: -27.3% [at 86.2 µM]
59 | COc1ccc(CN2C[C@@H](CN3CCCCC3)[C@@H](CO)C2)cc1O | inconclusive: 25.1 µM [inhibitor, partial curve, poor fit] | –
60 | CCOC(=O)c1ccccc1NC(=O)c1cc2c(s1)-c1ccccc1SC2 | inconclusive: 12.6 µM [inhibitor, partial curve, poor fit] | –
61 | O=S(=O)(Nc1cccc2c1CCCC2)c1ccccc1 | – | inactive: 16.1%
62 | COc1ccc(Br)cc1CNC(=O)CCc1cn(Cc2ccc(C)cc2)c2ccccc12 | inconclusive: 17.8 µM [inhibitor, single point] | –
63 | COc1ccccc1CC(=O)NCc1csc(-c2cccs2)n1 | inconclusive: 31.6 µM [inhibitor, partial curve, poor fit] | –
64 | C=CCNC(=O)NC(=O)CN(Cc1ccccc1)CC(C)C(=O)OC (stereo not given) | – | inactive: 14%
65 | COc1ccc(-c2cc(N3CCCN(C(=O)C4(c5ccc(OC)cc5)CC4)CC3)n[nH]2)cc1 | inconclusive: 28.2 µM [inhibitor, partial curve, poor fit] | –
